# Over roughly 33,000 sequences, “E-score (-0.5 to 0.5)” has its median near -0.043; the highest 2% begin near 0.37. The list shows a part of the results.
# Biological target: T1, Upc2 (UniProt Q12151)
# T1 sequence: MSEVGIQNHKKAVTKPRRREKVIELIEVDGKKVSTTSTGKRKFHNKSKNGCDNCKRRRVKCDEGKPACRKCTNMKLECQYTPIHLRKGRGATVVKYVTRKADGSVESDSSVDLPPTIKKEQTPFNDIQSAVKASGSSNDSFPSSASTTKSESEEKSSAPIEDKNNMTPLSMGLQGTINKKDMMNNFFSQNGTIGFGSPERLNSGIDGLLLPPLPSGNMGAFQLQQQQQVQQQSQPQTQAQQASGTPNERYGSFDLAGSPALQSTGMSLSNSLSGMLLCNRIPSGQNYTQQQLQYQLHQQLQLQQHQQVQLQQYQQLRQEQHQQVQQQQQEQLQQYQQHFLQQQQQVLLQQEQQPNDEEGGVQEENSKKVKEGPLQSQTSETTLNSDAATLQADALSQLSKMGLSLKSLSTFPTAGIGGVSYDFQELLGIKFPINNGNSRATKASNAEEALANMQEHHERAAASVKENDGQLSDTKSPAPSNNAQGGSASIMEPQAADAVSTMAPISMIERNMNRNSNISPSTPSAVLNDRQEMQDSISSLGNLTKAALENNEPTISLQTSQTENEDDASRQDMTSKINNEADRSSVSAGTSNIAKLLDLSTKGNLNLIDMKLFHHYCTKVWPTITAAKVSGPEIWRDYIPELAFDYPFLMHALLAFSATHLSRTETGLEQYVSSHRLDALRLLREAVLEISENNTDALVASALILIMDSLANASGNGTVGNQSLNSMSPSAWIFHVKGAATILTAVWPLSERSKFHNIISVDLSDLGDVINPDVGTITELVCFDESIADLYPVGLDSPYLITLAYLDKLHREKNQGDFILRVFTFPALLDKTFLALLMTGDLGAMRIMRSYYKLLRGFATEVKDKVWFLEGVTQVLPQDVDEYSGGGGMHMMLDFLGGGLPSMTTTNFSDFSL
# Assay: PBM E-score (8-mer binding enrichment) (E-score (-0.5 to 0.5)); higher = stronger / more preferred TF binding; most listed sequences are background and not binding sites
# Conditions: protein concentration: 200 nM; construct: GST-full length
# Procedure, shortened: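 For each ungapped eight-base word taken together with its reverse complement, the Universal PBM Analysis Suite assigned an E-score. Binding data came from GST-tagged yeast transcription factors, applied at about 100-200 nM, on universal all-10-mer Agilent arrays made double-stranded by primer extension. Fluorescent anti-GST marked bound protein, and scans were normalised with masliner.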
row,Sequence,PBM E-score
1,CGCACACA,-0.0833
2,GGCGGCCA,-0.162
3,TATACTAA,0.258
4,ATATTCGG,-0.0205
5,ATTTACGC,0.154
6,AGGCCCAG,-0.199
7,GATAGCCA,-0.107
8,CATGCTAC,-0.198
9,ACTATATA,0.188
10,CCCGACCC,0.0376
11,ACCGAGTC,-0.0781
12,ACCGACAG,0.0284
13,CTGATAAA,-0.0236
14,CGCTACGA,0.421
15,CGTGCCCC,-0.0367
16,CACAGGAG,-0.0197
17,CTCGAACC,-0.0178
18,CTGTGTGC,-0.193
19,TAACAGTA,0.0732
20,ATAGTAAC,-0.0432
21,GGACGCAA,-0.0564
22,ATGCGTCC,-0.239
23,ACAGTCAA,0.0251
24,ACGTTACT,0.0821
25,CATTGTCG,0.0164

row,Sequence,PBM E-score
1,TCAAAGCA,-0.113
2,AACACAAA,0.107
3,GCGAGCTA,0.207
4,AGAGTAAA,0.0457
5,CGTGTCAG,-0.161
6,AAATTCCT,-0.127
7,ATAGTTCG,-0.00869
8,CTGTGAAA,0.0689
9,CAGGCTAG,-0.141
10,ACGCACGA,0.181
11,CATTGTAG,-0.0679
12,CTTGTTCC,0.0561
13,GAACACTA,-0.14
14,ATTGTTTA,-0.0224
15,AGGTATTG,0.00589
16,ACGACCTC,0.344
17,CCTCCAGC,-0.0906
18,ATATACAT,-0.0908
19,GAAACTAC,-0.102
20,CAGGAAAC,-0.0113
21,AACTTACG,0.198
22,TTAATCAA,-0.00222
23,CCGAGACC,0.0331
24,GTACTATA,0.172
25,GGGAAACC,-0.0204

row,Sequence,PBM E-score
1,AAATCCGG,0.0202
2,GAACCGAA,0.249
3,AAGTTGAC,-0.0173
4,CATCACCC,-0.233
5,GGAGCAAC,-0.153
6,ACAGCGCT,0.128
7,CAAAAGCA,0.0182
8,GTGAAAAC,-0.0279
9,AGCGAAGC,0.188
10,CTAAACAA,-0.156
11,ATCCCCCG,-0.047
12,ACCAACCT,-0.00069
13,CGAGGGGA,0.275
14,CGTTAATC,0.313
15,AGGTAAAT,-0.0588
16,CGGGGCTC,0.0719
17,GGTGATAA,-0.0686
18,GGGAATAC,0.0625
19,GGATGCCA,-0.287
20,GGTCAGTA,0.0222
21,ACAGTCTA,0.0492
22,CCACTTGA,-0.0806
23,TAGCACTA,-0.239
24,GCTATTAC,0.109
25,ATCTCTGA,-0.252

row,Sequence,PBM E-score
1,CCTAACCG,0.19
2,CAAAACGG,0.0742
3,GCTCTTCC,-0.203
4,AAACCGAC,0.168
5,ACTTGAAG,-0.124
6,ATTCATCG,0.0233
7,CGTGCCGC,0.152
8,ACACTGAG,-0.17
9,TCATAAAA,-0.0566
10,CCGCGGGC,-0.239
11,CTAAATGA,-0.233
12,AAGCCCTC,-0.0182
13,AAAGTGGT,-0.073
14,ACACATAC,0.0349
15,ATCAAGCC,0.0113
16,GGACTGAA,-0.158
17,CCAGTGTC,-0.137
18,AGCGGTTC,-0.0168
19,ACACCTAA,0.0608
20,ACGGAATG,-0.026
21,CAGAAACA,0.0123
22,GCAAACTA,-0.0021
23,AATCCGAT,0.0689
24,AGCGATGC,0.176
25,GCGTGGCC,-0.153

row,Sequence,PBM E-score
1,ATTGGTAA,-0.111
2,ACAGATGA,-0.0657
3,AACACCCT,-0.191
4,ACGGGGAA,0.23
5,AAACCAGA,-0.0146
6,CTTCATCC,-0.177
7,AGAATCAT,-0.0914
8,CTCGAGCA,-0.0107
9,CGGCCTTA,-0.0891
10,ACAAGTGC,-0.11
11,GAAATATA,0.127
12,CAAGAGAG,-0.125
13,CGCCTGTC,-0.0785
14,CAGTCAGG,-0.185
15,ATCGTCAG,-0.224
16,CTACTGCA,-0.135
17,ATCACTGA,-0.109
18,CAGGCCGG,-0.197
19,ACGAAATA,0.362
20,GCCGTACC,0.379
21,TAGATACA,-0.00949
22,AAGGCGTC,-0.134
23,AACCACAG,-0.212
24,GTCGAGGA,-0.226
25,ACCATGCC,-0.252

row,Sequence,PBM E-score
1,CCCTCATC,-0.0575
2,CTGTAAAG,-0.0138
3,CATGCGAA,0.14
4,CAGTCCGA,-0.176
5,CCGTGGAG,-0.212
6,CCTGCCCA,-0.36
7,ATTGTGAG,-0.196
8,AATAGACG,0.0504
9,CCTCGCAG,-0.14
10,ACGCCAAT,0.201
11,CCTATAGC,-0.286
12,ACGTCATA,0.0692
13,AACTGCCA,-0.0631
14,AGCGCATA,0.0812
15,CGCTCAGA,0.121
16,CCTTCGGA,0.154
17,AGCATACG,0.353
18,ATCCCACG,-0.166
19,CTTAGGTC,0.0323
20,CTCACTAA,-0.0103
21,CTAATATC,-0.0311
22,GCCAGATA,-0.0886
23,ACCATCAA,-0.0348
24,CCGTCAGC,-0.231
25,AACGGTCA,0.188

row,Sequence,PBM E-score
1,GCAGGGCC,-0.114
2,CGACTTTC,0.0358
3,GCACAGTA,0.0761
4,CATGGGAC,-0.193
5,CGCAAGAA,0.109
6,CCGAGACG,0.179
7,AACTGCCG,0.026
8,GCAAGAAA,-0.107
9,ATCGTATC,0.426
10,AATACCGG,-0.153
11,AGTCCTTG,-0.224
12,GATGGCAA,0.00691
13,GGACGGAC,-0.0787
14,TAAAGCTA,-0.0839
15,CGCCGCTA,-0.0277
16,AGTGCCCA,-0.137
17,GATTAGAC,-0.0209
18,GCACATGC,-0.2
19,GGTGCTAC,-0.18
20,CCGGATTA,-0.208
21,AGCGGACC,-0.0433
22,CTGTCGCA,0.0616
